Legend:
Jurkat cells = experiment: Metabolic labeling with inhibitors; conditions: CHX 10 μM, HMA 1 mM, 2-BP 50 μM, 30 minutes pre-incubation
Jurkat T cells = experiment: Metabolic labeling of Jurkat T cells with alkynyl-acetate analogs, CuAAC with az-Rho, in-gel fluorescence scanning; conditions: 10 μM SAHA, 8 hrs
M. smegmatis = experiment: Labeling of acylated proteins in bacterial cells with alkynyl-chemical reporters; assay type: cell-based
[1] = test system: acetylated proteins such as histones; experiment: Metabolic labeling of acetylated proteins with very short chain alkynyl-chemical reporters, in-gel fluorescence; assay type: cell-based, human
[2] = Absorbance and fluorescence studies of clickable CyFur dyes; assay type: physicochemical
Description: Absorbance and fluorescence studies. Absorption spectra and fluorescence data were collected on SpectraMax M2 multi-detection reader (Molecular Devices). The spectra in solution were obtained at 25° C. using a quartz cuvette with a path length of 1 cm. Fluorescence quantum yields (ΦF) of CyFur dyes were determined against cresyl violet (ΦF=0.54 in methanol).

CCCCCCCCCCCCC(O)C(=O)O (stereo not drawn) [HMA, 2-hydroxymyristic acid, reference compound]
effect of inhibitor on alkynyl-fatty acid protein labeling (alk-12, alk-14, alk-16, 20 μM) (Jurkat cells): selectively blocked alk-12 protein labeling compared to alk-14 and alk-16

O=C(CCCCCCC(=O)Nc1ccccc1)NO [SAHA, suberoylanilide hydroxamic acid, reference compound]
acetylation level of histones (Western blot, anti-acetyl-Lys antibody) (Jurkat T cells): elevated acetylation level of histones
effect on protein labeling with alkynyl-acetate analogs (Jurkat T cells; Jurkat T cells, 100 μM CHX): slightly reduced

C#CCCC(=O)O [alk-3, pent-4-ynoic acid]
labeling of proteins in bacterial cells (M. smegmatis): labeled distinct proteins
labeling of acetylated proteins [1]: found to label acetylated proteins such as histones

CC1(C)OC(=C(C#N)C#N)C(C#N)=C1/C=C/c1ccc(NC(=O)CCCCCN=[N+]=[N-])cc1 [az-CyFur-2, (E)-6-azido-N-(4-(2-(4-cyano-5-(dicyanomethylene)-2,2-dimethyl-2,5-dihydrofuran-3-yl)vinyl)phenyl)hexanamide]
absorption (abs) maxima [2]: 470 nm
emission (em) maxima [2]: 580 nm
εmax^b (M^−1cm^−1) ([2]; in MeOH, at 470 nm for az-CyFur-1, az-CyFur-2 and at 580 nm for alk-CyFur, averaged over three independent experiments): 12,100 M^−1cm^−1
ΦF^c ([2]; quantum yield referenced against cresyl violet, alk-CyFur excited at 580 nm, az-CyFur-1 and az-CyFur-2 at 470 nm): 0.0027
λmax^a (nm) (first column) ([2]; spectra obtained in DMSO): 470 nm
λmax^a (nm) (second column) ([2]; spectra obtained in DMSO): 580 nm

CC1(C)OC(=C(C#N)C#N)C(C#N)=C1/C=C/c1ccc(NCCc2cn(CCOC(=O)Nc3ccc(/C=C/C4=C(C#N)C(=C(C#N)C#N)OC4(C)C)cc3)nn2)cc1 [fluorophore 3, 2-(4-(2-(4-((E)-2-(4-cyano-5-(dicyanomethylene)-2,2-dimethyl-2,5-dihydrofuran-3-yl)vinyl)phenylamino)ethyl)-1H-1,2,3-triazol-1-yl)ethyl 4-((E)-2-(4-cyano-5-(dicyanomethylene)-2,2-dimethyl-2,5-dihydrofuran-3-yl)vinyl)phenylcarbamate]
fluorescence emission (FRET) ([2]; excitation at 410 nm): 640 nm
